# Source: the supplement of paper PMC12217912
# The other results are listed elsewhere or left out. Sequences were assembled here from the parent chain. Inactive controls read about 0.05.
# B1: TEV protease; numbered along this chain (parent)
# chain: MGESLFKGPRDYNPISSSICHLTNESDGHTTSLYGIGFGPFIITNKHLFRRNNGTLVVQSLHGVFKVKDTTTLQQHLVDGRDMIIIRMPKDFPPFPQKLKFREPQREERICLVTTNFQTKSMSSMVSDTSCTFPSGDGIFWKHWIQTKDGQCGSPLVSTRDGFIVGIHSASNFTNTNNYFTSVPKNFMELLTNQEAQQWVSGWRLNADSVLWGGHKVFMVKPEEPFQPVKEATQL
# Variants of: B1
# Assay: raw area under fraction-flipped curve 0-4 h after induction (AUC4h, not background-subtracted), DNA-recorder readout of cleavage of the substrate (dimensionless); higher = more cleavage of the substrate by the protease variant
# Settings: temperature: 34 °C; time window: 0-4 h after rhamnose induction
# Method: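 In vivo DNA recorder in E. coli TOP10(DE3) ΔrhaA at 34 °C. Each TEVp single-site mutant (parent TEVp 0) is paired with a single-site variant of the 7-mer TEVs (canonical ENLYFQ|S). The substrate sits between flexible linkers in a Bxb1-sfGFP-TEVs-SsrA fusion, so cleavage stabilises Bxb1 and speeds flipping of a recombination array, read by NGS. The value is the raw area under the fraction-flipped curve over 0-4 h after rhamnose induction (AUC4h), with ≥20 reads per time point. It is not background-subtracted; inactive controls average about 0.047.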
# 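Note: Bxb1 expression induced with 0.2% (w/v) L-rhamnose at OD600 near 0.5, cultures sampled hourly, flipped fraction per protease–substrate barcode pair counted by paired-end Illumina sequencing.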
Variant,area with substrate ENLYAQS,area with substrate ENLYCQS,area with substrate ENLYEQS,area with substrate ENLYGQS,area with substrate ENLYHQS,area with substrate ENLYIQS,area with substrate ENLYKQS,area with substrate ENLYNQS,area with substrate ENLYQQS,area with substrate ENLYRQS,area with substrate ENLYYQS,area with substrate ENLYDQS,area with substrate ENLYMQS,area with substrate ENLYSQS,area with substrate ENLYWQS,area with substrate ENLYLQS,area with substrate ENLYPQS,area with substrate ENLYVQS,area with substrate ENLYTQS
F101Q,0.0589,0.05,0.0518,0.0419,0.0547,0.0523,0.0456,0.0525,0.0391,0.045,0.0265,–,–,–,–,–,–,–,–
P104Y,0.0505,–,0.059,0.0556,0.0436,0.0396,0.0632,0.0552,0.0427,0.0569,0.0534,0.0427,0.0609,0.0558,0.0565,–,–,–,–
Q105K,0.0627,0.0983,0.07,0.0683,0.0596,0.127,0.0607,0.0691,0.0501,0.0668,0.0543,0.0623,0.0832,0.0653,0.0752,0.0869,0.0753,0.101,–
Q105N,0.0604,0.0816,0.0746,0.0669,0.0688,0.147,0.0636,0.0671,0.0652,0.0507,0.0657,0.0592,0.0824,0.0763,0.0872,–,0.0751,0.127,0.0699
R106I,0.0649,–,0.0751,0.0585,0.0646,–,0.0534,–,–,0.0644,0.0677,–,–,0.0687,0.0883,0.0778,0.101,0.0954,0.0787
E108N,0.06,0.0652,0.0506,0.0642,0.0475,0.103,0.0509,0.0538,0.0635,0.0549,0.059,0.0588,0.0694,0.0685,0.0468,–,0.0689,0.0836,0.0691
R109P,0.0854,0.0863,0.0684,0.0626,0.0682,0.132,0.0647,0.0657,0.0552,0.0579,0.0667,0.0618,0.0755,–,0.073,0.0701,0.0732,–,0.0892
V113C,0.0354,–,0.0688,0.0664,0.0701,0.137,0.0197,0.0712,0.0566,–,0.0803,0.0587,0.0885,0.0771,0.0657,–,0.0774,0.126,0.0844
V113H,0.0654,–,0.0708,0.0611,0.0744,–,0.062,0.0719,0.0575,0.0557,0.0577,0.0492,–,–,0.0557,–,0.0678,0.104,0.0689
V113L,0.11,0.0852,0.0662,0.0826,0.0677,0.122,0.0728,0.0659,–,0.0636,–,0.0728,0.0612,0.0705,0.0813,0.114,0.0873,0.115,–
V113N,0.0558,–,0.0595,–,0.0468,0.0748,–,0.0583,0.0449,0.0699,0.0579,–,0.0454,–,–,0.0683,–,–,0.0192
T115C,0.0867,–,0.0629,0.0727,0.0697,0.144,0.0199,0.0639,–,0.0691,0.0851,–,0.124,0.0849,0.0747,0.0883,0.103,0.134,–
N116A,0.0739,0.0892,0.0621,0.0638,0.0714,0.105,0.0613,–,–,0.0534,0.0582,0.0971,0.11,0.0763,0.0972,–,0.058,0.0669,0.0854
Q118N,0.0636,–,0.0678,–,0.0694,–,0.0678,0.0853,–,0.0666,0.0633,0.068,0.0931,0.0719,0.0818,0.0733,0.116,0.101,–
S121E,0.0652,–,0.063,0.0677,–,0.088,–,0.0748,–,0.0577,0.0727,0.0597,0.0891,0.122,0.0637,–,–,–,–
M122K,0.0629,–,–,0.053,0.0789,0.138,0.0575,0.0618,0.0637,0.0618,0.0583,0.0479,0.0804,–,0.0921,–,0.0654,–,–
M122P,0.064,–,0.0694,0.064,0.0663,0.118,0.0604,0.0756,0.0753,0.0893,–,0.0669,0.0935,0.0749,0.0863,0.0809,0.0813,0.118,0.0799
M122Y,0.0921,–,0.0675,–,0.0731,0.148,0.0579,0.0664,0.0533,0.0698,–,0.0646,0.0782,–,0.0773,0.0716,0.0637,0.131,0.0817
S123T,0.068,–,0.083,0.0758,0.0713,0.142,0.0603,0.0681,0.0475,0.0603,–,–,0.132,0.0796,0.093,0.071,0.0723,0.137,0.116
M125L,0.0703,–,0.0606,0.0456,0.0487,–,0.0626,0.0595,–,0.0684,0.0772,0.0541,0.101,0.0695,0.0884,–,0.0722,0.109,0.0752
F133D,0.0895,–,0.0698,–,0.064,0.113,0.065,–,–,0.0608,–,0.063,0.081,0.0748,0.0811,–,–,0.0847,0.0918
S135I,0.0607,0.0819,0.0593,0.0623,0.057,0.0704,0.0503,0.0634,0.0641,0.0657,0.0554,0.0567,–,0.0651,0.0554,–,0.0537,0.0996,0.055
G138Q,0.0628,–,0.0691,–,–,–,0.0597,0.0432,–,–,–,–,–,0.0676,–,–,0.0938,–,–
I139N,0.0575,0.0747,0.0354,0.0652,0.0655,0.0779,–,0.0729,0.0889,0.0613,–,0.0546,0.0313,–,0.0695,0.0596,0.0624,0.114,–
